The source of these data is the antibiotic and cytotoxicity screens of Wong et al. (2023).

Some of the results follow.

The first experiment concerns HepG2. The experiment can be described thus: cytotoxicity call (relative viability < 0.9). The settings on record: 10 µM.
Regarding `CC(C)NC(=O)N(C)C[C@@H]1Oc2ccc(NC(=O)Cc3ccccc3)cc2CC(=O)N([C@@H](C)CO)C[C@@H]1C`, the cytotoxicity call was “inactive”.
On the same count and under the same terms, the value for `N=C(N)c1ccc2nc(-c3cc(CC(=O)N[C@@H](CC(=O)O)C(=O)O)cc(-c4cc(S(N)(=O)=O)ccc4O)c3O)[nH]c2c1` was “inactive”.
As to `C[C@@H]1CCCCO[C@@H](CN(C)C(=O)Nc2ccc(F)cc2)[C@H](C)CN([C@H](C)CO)C(=O)c2cc(NC(=O)c3ccccc3)ccc2O1`, the cytotoxicity call was “inactive”.
In the case of `NNC(=O)Cn1nnc(N2CCCC2)n1`, the cytotoxicity call was “inactive”.
Still for that read-out and setting: the value for `CC1(C)C(=O)NCCN1C(=O)Cc1ccccc1` was “inactive”.
On to `COc1ccccc1NC(=O)N(C)C[C@H]1Oc2cc(Br)ccc2S(=O)(=O)N([C@H](C)CO)C[C@@H]1C`, for which the cytotoxicity call was “inactive”.
Still for that read-out and setting: the value for `O=C(C[C@H]1CC[C@@H]2[C@H](COC[C@@H](O)CN2C(=O)c2cccnc2)O1)NCC1CC1` was “inactive”; that for `COCCNC(=O)C[C@@H]1CC[C@H]2[C@@H](COC[C@@H](O)CN2S(=O)(=O)c2ccccc2C)O1` was “inactive”.
Same read-out and setting: the value for `C[C@@H]1CN([C@@H](C)CO)C(=O)Cc2cc(NC(=O)CCN3CCOCC3)ccc2O[C@H]1CN(C)S(=O)(=O)c1ccc(Cl)cc1` was “inactive”.

The subject of a further experiment is S. aureus RN4220. The experiment can be described thus: growth inhibition call (relative growth <= 0.2). The settings on record: 50 µM.
As for `Cc1cc(C)c(N(Cc2ccccc2)S(=O)(=O)c2ccc(OCCNC(=O)c3cc4ccccc4o3)cc2)c(C(=O)NO)c1`, the growth inhibition call is “inactive”.
On the same count and under the same terms, as for `C[C@H](CO)N1C[C@H](C)[C@@H](CN(C)C(=O)Nc2ccc3c(c2)OCO3)OCc2cn(nn2)CCCC1=O`, the entry is “inactive”; as for `C[C@@H]1CN([C@@H](C)CO)C(=O)c2cc(C#CCN(C)C)cnc2O[C@H]1CN(C)Cc1cccc(C(=O)O)c1`, “inactive”; as for `COc1ccc(S(=O)(=O)N(C)C[C@H]2Oc3cc(C#CC4CC4)ccc3S(=O)(=O)N([C@@H](C)CO)C[C@@H]2C)cc1`, “inactive”.
Still for that read-out and setting: the value for `O=C(O)C[C@@H]1CC[C@@H]2[C@H](COC[C@@H](O)CN2S(=O)(=O)c2ccc(F)cc2)O1` was “inactive”; that for `CO[C@@H]1CN(C)C(=O)c2cc(NS(=O)(=O)c3cn(C)cn3)ccc2OC[C@@H](C)N(CCC(F)(F)F)C[C@@H]1C` was “inactive”; that for `CCOC(=O)[C@@H](N)Cc1ccc(O)c(O)c1` was “inactive”.
On the same count and under the same terms, the value for `C[C@@H]1CCCCO[C@H](CN(C)Cc2ccc(Cl)c(Cl)c2)[C@@H](C)CN([C@H](C)CO)C(=O)c2cc(NS(=O)(=O)c3ccccc3)ccc2O1` was “inactive”.
`Cn1c[n+](NC(=O)c2ccc(C(=O)ON3C(=O)CCC3=O)cc2)cn1`: the growth inhibition call was “inactive”.
As to `COc1ccc(CN(C)C[C@H]2OCCCC[C@@H](C)Oc3ccc(NC(=O)C4CCCCC4)cc3C(=O)N([C@@H](C)CO)C[C@@H]2C)cc1`, the growth inhibition call is “inactive”.
Still for that read-out and setting: the value for `C[C@@H]1CCCCO[C@@H](CN(C)Cc2ccc(C(F)(F)F)cc2)[C@@H](C)CN([C@@H](C)CO)C(=O)c2cc(NC(=O)Nc3ccc(C(F)(F)F)cc3)ccc2O1` was “inactive”; that for `Cc1noc(C)c1S(=O)(=O)N(C)C[C@@H]1OCCCC[C@@H](C)Oc2ccc(NS(C)(=O)=O)cc2C(=O)N([C@@H](C)CO)C[C@@H]1C` was “inactive”.
The same measure, in the same setting: the value for `Cc1ccc(S(=O)(=O)N(C)C[C@@H]2Oc3ccc(NC(=O)NC(C)C)cc3CC(=O)N([C@@H](C)CO)C[C@@H]2C)cc1` was “inactive”; that for `C[C@H](CO)N1C[C@H](C)[C@H](CN(C)Cc2ccc(C(F)(F)F)cc2)Oc2ccc(NC(=O)Cc3cn(C)c4ccccc34)cc2C1=O` was “inactive”.
Same read-out and setting: as for `CC(=O)N(C)c1nc(N)n(-c2ccccc2)n1`, the entry is “inactive”.
As for `Cc1noc(C)c1S(=O)(=O)N(C)C[C@@H]1Oc2c(NS(=O)(=O)c3cccs3)cccc2C(=O)N([C@H](C)CO)C[C@@H]1C`, the growth inhibition call was “inactive”.
Still for that read-out and setting: the value for `COc1cc(/C=C/C(=O)N2CCC=CC2=O)cc(OC)c1OC(=O)CCCCCCCCCCC(=O)Oc1c(OC)cc(/C=C/C(=O)N2CCC=CC2=O)cc1OC` was “inactive”; that for `CC(C)NC(=O)Nc1ccc2c(c1)C(=O)N([C@@H](C)CO)C[C@@H](C)[C@@H](CN(C)S(C)(=O)=O)OCCCC[C@@H](C)O2` was “inactive”.
In the case of `C[C@@H]1CCCCO[C@H](CN(C)C(=O)CCC(F)(F)F)[C@H](C)CN([C@@H](C)CO)C(=O)c2cc(NS(=O)(=O)c3cccs3)ccc2O1`, the growth inhibition call was “inactive”.
Still for that read-out and setting: as for `Nc1ccc(S(=O)(=O)NC(=O)c2ccccc2)cc1`, the entry is “inactive”; as for `C[C@@H]1CN([C@@H](C)CO)C(=O)c2cc(NC(=O)Nc3ccc(F)cc3)ccc2O[C@@H](C)CCCCO[C@@H]1CN(C)Cc1ccccc1`, “inactive”; as for `C[C@H]1CN([C@@H](C)CO)C(=O)Cc2cc(NC(=O)Cc3cn(C)c4ccccc34)ccc2O[C@H]1CN(C)C(=O)Nc1ccc(C(F)(F)F)cc1`, “inactive”.
